# ± gives the standard deviation of the averaged measurements. The full ranking holds about 33,000 sequences; the median of “E-score (dimensionless, -0.5 to 0.5)” is about -0.046, and the highest 2% start at about 0.36. The list shows a part of the results.
# Test system: T1, SpTbr T-box DNA-binding domain (GST fusion)
# T1 sequence: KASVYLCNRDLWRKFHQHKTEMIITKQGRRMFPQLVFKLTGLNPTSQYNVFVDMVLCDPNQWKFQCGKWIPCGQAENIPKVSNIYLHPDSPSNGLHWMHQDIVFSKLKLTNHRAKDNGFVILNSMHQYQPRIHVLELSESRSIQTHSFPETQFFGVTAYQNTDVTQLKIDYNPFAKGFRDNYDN
# Test: PBM E-score of 8-mer (E-score (dimensionless, -0.5 to 0.5)); Tbr is Tbrain of the sea star Patiria miniata (Pm) or the sea urchin Strongylocentrotus purpuratus (Sp); higher = stronger binding preference; most listed sequences are background and not binding sites
# Conditions: the construct has about 5 more residues each side
# Method in brief: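 Each ungapped 8-mer received an enrichment E-score from the Universal PBM Analysis Suite, averaged over duplicate arrays. The proteins were Tbr T-box DNA-binding domains, covering the whole T-box plus about five flanking residues, fused to GST and expressed in BL21 E. coli at 20 °C before glutathione affinity purification. Universal Agilent oligonucleotide arrays were made double-stranded by primer extension and incubated with 200 nM protein in PBS (pH 7.5). The arrays were then scanned and quantified, and every 8-mer was scored from probe intensities.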
row,Sequence,PBM E-score of 8-mer
1,CCGGTAGA,-0.193 ± 0.061
2,AGCTCCAG,-0.378 ± 0.075
3,CCGCGATA,0.194 ± 0.012
4,CATTTTAA,-0.16 ± 0.071
5,GCACGAGA,-0.0609 ± 0.1
6,GCCGGTTA,-0.0813 ± 0.011
7,CAATTAGA,-0.0923 ± 0.011
8,CACGTGAC,0.286 ± 0.042
9,CCATCGGC,0.0735 ± 0.048
10,CTCTTCAC,0.292 ± 0.018
11,AATAATCA,0.0678 ± 0.091
12,GCTTTTGA,-0.129 ± 0.032
13,CATCATGG,-0.23 ± 0.014
14,CCGGTGTC,0.18 ± 0.047
15,ACAGCGTG,0.0451 ± 0.034
16,ACTTGGTG,0.193 ± 0.044
17,AGAGAACT,-0.132 ± 0.12
18,AGCCCGAA,-0.165 ± 0.087
19,CAAGTCGA,-0.0354 ± 0.098
20,CGCACGAA,0.0926 ± 0.039
21,GACTTCAA,-0.115 ± 0.083
22,GGTTTATA,-0.18 ± 0.079
23,GATCGTCA,0.127 ± 0.069
24,AAGAGCAG,-0.0507 ± 0.0063
25,ACTCGGAT,-0.17 ± 0.042

row,Sequence,PBM E-score of 8-mer
1,AAGCTATG,-0.194 ± 0.0042
2,TCGCTCCA,-0.0758 ± 0.028
3,GCACAACA,0.144 ± 0.058
4,ACCACTGC,-0.165 ± 0.036
5,AGGACGCA,-0.093 ± 0.014
6,CCCCGCGG,-0.0278 ± 0.0019
7,GGTCGCTA,0.00359 ± 0.0094
8,ATATCAGA,-0.222 ± 0.003
9,TCCTCCGA,-0.252 ± 0.0093
10,GTAGATAA,-0.151 ± 0.039
11,CGTGTTTC,0.0757 ± 0.044
12,TCGCCGAA,-0.051 ± 0.061
13,TAAGTCCA,-0.244 ± 0.011
14,ACACAAGT,0.0616 ± 0.051
15,ATTCTCTA,-0.0621 ± 0.03
16,CCAGATGC,-0.178 ± 0.038
17,GACGCCCC,0.136 ± 0.099
18,CCAAAGAC,-0.118 ± 0.045
19,ATAACCAG,-0.0976 ± 0.025
20,ATCGCCAG,0.236 ± 0.038
21,AAGCGTAG,-0.0374 ± 0.022
22,AATGAGAT,-0.104 ± 0.02
23,GCTAGACC,-0.168 ± 0.019
24,GTTACGTA,-0.0148 ± 0.022
25,CATAGAAA,-0.183 ± 0.056

row,Sequence,PBM E-score of 8-mer
1,ATGCAGGA,-0.192 ± 0.019
2,AGCGATCC,-0.0625 ± 0.056
3,AGCTCCCT,-0.0894 ± 0.008
4,GCTCTGGA,-0.27 ± 0.033
5,AACGATGT,0.0627 ± 0.015
6,CAGGCATG,-0.269 ± 0.044
7,CAGCGACG,0.0381 ± 0.017
8,CGCAAGAC,0.07366 ± 4.2e-05
9,GCGGGATA,-0.076 ± 0.039
10,AGGAGACG,-0.168 ± 0.0035
11,CCACACAG,0.168 ± 0.027
12,ATACATAA,-0.146 ± 0.042
13,GCCATATA,-0.0999 ± 0.011
14,CCAATTCA,-0.0209 ± 0.061
15,CTTAAGTA,-0.146 ± 0.032
16,GGTAAATA,-0.129 ± 0.013
17,ACGGAGGG,-0.179 ± 0.052
18,CCTGTACA,-0.104 ± 0.0043
19,AGTTACCA,-0.00685 ± 0.018
20,AGCATGGC,-0.217 ± 0.0064
21,CATGTGCA,0.14 ± 0.028
22,GTGGTGAA,0.114 ± 0.028
23,TGCAACCA,-0.0618 ± 0.0096
24,CCTGGACA,-0.01 ± 0.077
25,CCTAGTAC,-0.0868 ± 0.029

row,Sequence,PBM E-score of 8-mer
1,CTGCACCA,-0.121 ± 0.11
2,CCAGGCAA,-0.179 ± 0.11
3,CTTTTGTA,-0.233 ± 0.088
4,AGCGAGAC,0.115 ± 0.0084
5,CTCATGCC,-0.069 ± 0.02
6,ACGACGGG,0.0408 ± 0.031
7,CAGTAACC,0.048 ± 0.029
8,GGTTATCA,0.0778 ± 0.034
9,AACTTTGT,0.152 ± 0.041
10,CTTCTGGC,-0.0984 ± 0.022
11,ATTCCCCA,0.0621 ± 0.03
12,CACGGGCA,-0.117 ± 0.0051
13,ATCACTTC,0.226 ± 0.033
14,AGACCCTC,-0.0134 ± 0.048
15,CCCTTAAC,-0.0411 ± 0.058
16,CGTGGAAG,0.0205 ± 0.034
17,CGCCTTAA,0.156 ± 0.016
18,GGGGGACA,-0.123 ± 0.068
19,CATTCACG,0.238 ± 0.024
20,GGTGTGGA,0.456 ± 0.014
21,GGACCTAA,-0.0149 ± 0.034
22,CGCCGTGA,0.172 ± 0.013
23,CACGGGGC,-0.0714 ± 0.031
24,AGAGGTCA,-0.136 ± 0.032
25,ATATAATA,-0.263 ± 0.031

row,Sequence,PBM E-score of 8-mer
1,GGGTAACA,0.246 ± 0.05
2,CACGCGTC,0.274 ± 0.013
3,CGCCATGC,0.0353 ± 0.036
4,CAGAATGA,-0.255 ± 0.026
5,GAAATGAA,0.162 ± 0.072
6,AACCATTG,-0.0476 ± 0.065
7,ATCCTTGC,-0.117 ± 0.011
8,CCAAAGCA,-0.145 ± 0.076
9,AATTACCC,-0.123 ± 0.0094
10,CCAGAACC,-0.245 ± 0.028
11,CCCTAGCA,-0.123 ± 0.094
12,GCTCTGCC,-0.0292 ± 0.13
13,CGACGAAG,0.143 ± 0.04
14,CTATAGAC,-0.192 ± 0.046
15,GTGTAGAA,0.174 ± 0.014
16,AGCTTGGG,-0.161 ± 0.031
17,GGTTTGCA,0.154 ± 0.017
18,ACTACCTA,-0.133 ± 0.079
19,CATTGAGA,0.16 ± 0.011
20,GGATTCCC,-0.22 ± 0.0035
21,GGGTTAAC,-0.00766 ± 0.087
22,AGCAAACA,0.0728 ± 0.028
23,CAGCGTCA,0.0369 ± 0.11
24,CCAGGTCA,-0.0658 ± 0.051
25,TGGCTCAA,0.0278 ± 0.017

row,Sequence,PBM E-score of 8-mer
1,AATCTGAT,-0.25 ± 0.015
2,CCTCTTAC,0.04709 ± 0.00011
3,CGTTCAAA,-0.0474 ± 0.14
4,CATTGCGA,0.0015 ± 0.016
5,AGTTCCTG,0.00651 ± 0.031
6,ACCAGTTA,-0.142 ± 0.021
7,CGCTGTCA,0.157 ± 0.058
8,AATCCTCG,0.0312 ± 0.0083
9,AGTGTCTC,0.106 ± 0.089
10,CCGTTTAA,-0.187 ± 0.042
11,GATGTTGC,-0.0546 ± 0.085
12,ACAGACTC,-0.179 ± 0.059
13,GCTGCCAA,0.0847 ± 0.029
14,CACCCACG,0.213 ± 0.018
15,ATATGGCA,-4e-05 ± 0.019
16,CACACAGG,0.244 ± 0.0081
17,GTGTGTGA,0.4221 ± 0.003
18,GAATGGTA,-0.0525 ± 0.073
19,ATGGCAAC,0.0697 ± 0.05
20,AAATCGTA,0.0245 ± 0.021
21,GTTCTTCA,-0.0554 ± 0.0092
22,CACTGCAC,0.128 ± 0.0054
23,AGTTCTTG,-0.0811 ± 0.038
24,CGGAATAA,-0.103 ± 0.1
25,ATGGTAAA,-0.214 ± 0.021

row,Sequence,PBM E-score of 8-mer
1,AAGATCGT,-0.094 ± 0.097
2,CTTTTTAC,-0.0935 ± 0.039
3,CAGGGTCG,0.205 ± 0.023
4,CTCTTTTA,0.02 ± 0.0092
5,AAAGATCC,-0.0364 ± 0.046
6,AGGTTCCG,-0.246 ± 0.069
7,TGCACAAA,0.00354 ± 0.028
8,AGCCATAC,-0.212 ± 0.021
9,CCCGGATC,-0.116 ± 0.029
10,AAGGGGGG,-0.358 ± 0.083
11,ACTAGGGC,-0.202 ± 0.049
12,CGCCGCCG,0.112 ± 0.0035
13,ATCCAAAG,-0.16 ± 0.022
14,CACAGCGC,0.0949 ± 0.014
15,GTCCTAAC,-0.1805 ± 0.0011
16,CAATCGTA,-0.0908 ± 0.035
17,CGGTCTAG,-0.3115 ± 0.0011
18,GGAGGGCA,-0.0498 ± 0.049
19,AAAATACG,-0.0435 ± 0.035
20,CAATTTCA,-0.0118 ± 0.036
21,ATGGATGC,-0.211 ± 0.072
22,CAGTACTG,-0.223 ± 0.099
23,ATTAACCG,-0.163 ± 0.02
24,GACTCTAC,-0.189 ± 0.014
25,TACTGGAA,-0.236 ± 0.024

row,Sequence,PBM E-score of 8-mer
1,AAGTTAGG,-0.254 ± 0.055
2,AGTGTCAG,0.371 ± 0.0097
3,ACTCCATC,-0.0968 ± 0.0097
4,ACTCGTCA,0.249 ± 0.025
5,CTTAGGGA,-0.338 ± 0.028
6,ACGTGCAT,0.0826 ± 0.028
7,CTAGCACA,0.271 ± 0.018
8,TTCGACAA,0.0463 ± 0.082
9,ACTTCCCC,-0.104 ± 0.046
10,CCCCAACG,0.235 ± 0.014
11,CGAGTAAC,0.0591 ± 0.04
12,GGACCCTA,-0.235 ± 0.075
13,GCTGCGGA,-0.123 ± 0.0085
14,GTGTATCA,-0.0227 ± 0.0043
15,CAGCACAC,0.159 ± 0.0043
16,ACAACAAG,0.112 ± 0.015
17,AGGTCTAA,-0.122 ± 0.0082
18,ACATGCCC,-0.124 ± 0.0073
19,CCCGTAGA,-0.323 ± 0.091
20,ACCACGGT,0.0372 ± 0.09
21,ACAATCGC,0.0999 ± 0.0069
22,CAAGTCCG,-0.0668 ± 0.092
23,AAATATGT,0.0248 ± 0.035
24,AAAATACT,-0.01 ± 0.08
25,ATATTCAG,-0.1613 ± 0.0011

row,Sequence,PBM E-score of 8-mer
1,CCCACCAG,-0.0304 ± 0.046
2,ATGAGTCA,-0.0158 ± 0.021
3,GTCAGCGA,0.0669 ± 0.036
4,AATCAGGG,-0.159 ± 0.025
5,ACGGGACG,-0.0732 ± 0.09
6,ATGAATTG,0.0344 ± 0.13
7,GCACCCCA,0.226 ± 0.037
8,TGTGAACA,0.445 ± 0.0018
9,GTGTTGGA,0.367 ± 0.0068
10,CACCTTAA,0.387 ± 0.004
11,CGGGTCAA,-0.0961 ± 0.032
12,CATCGTAC,-0.157 ± 0.036
13,GTCGACAC,0.394 ± 0.018
14,TACGTAAA,-0.04 ± 0.0023
15,AATTATGG,-0.133 ± 0.015
16,TGGTCAAA,-0.139 ± 0.037
17,CCAGCCCC,-0.208 ± 0.028
18,CCGTTAGG,0.0143 ± 0.029
19,AGGCCAAT,-0.14 ± 0.032

# — the supplement of paper PMC4166925
